Among all 140,000 compounds or so, about 240 (0.17%) were called active. The shares of active, inactive and inconclusive entries below differ from those in the screen. The call rests on the fitted dose curve; in most records, active means well fitted inhibition curve with a large enough effect; inconclusive means small, poorly fitted or top-dose-only effect; inactive means no such curve, though single readings can be large or run the other way. A potency beside an inconclusive call is a rough fit, not a confirmed value.
test: Primary qHTS assay for inhibitors of alpha-synuclein gene (SNCA) expression; conditions: HEK-293 SNCA-luciferase knock-in, luminescence, 24 h; series mostly up to 57.2 µM; further: nearly all actives have a fitted effect of over 45% in size
Potency means the concentration at half of the fitted maximal effect; tags describe the fitted curve by direction and shape.

| Structure (SMILES) | Potency |
| --- | --- |
| CC(=O)N(C1CC1)C1CCOC2(CCN(C(=O)CCc3ccccc3)CC2)C1 (configuration not stated) | inconclusive: 35.5 µM [inhibitor, single point] |
| Cc1ccccc1OCCSc1nc2ccc(NC(=O)c3ccccc3)cc2s1 | inconclusive: 44.7 µM [inhibitor, partial curve, poor fit] |
| Cc1nc(-c2cccc(NC(=O)Nc3ccc([N+](=O)[O-])cc3)c2)no1 | inconclusive: 6.31 µM [inhibitor, full curve, poor fit] |
| O=C(NCCc1ccccc1)NC1CCN(C(=O)N2CC3CC(C2)[C@H]2CCCC(=O)N2C3)CC1 (some centres not stated) | inconclusive: 8.91 µM [inhibitor, single point] |
| COc1ccccc1C(=O)N1CCN(c2cc(C(F)(F)F)nc(C)n2)CC1 | inconclusive: 35.5 µM [inhibitor, single point] |
| CN1CCc2c(n(Cc3ccc(C(=O)NO)cc3)c3ccccc23)C1 | inconclusive: 30.4 µM [inhibitor, partial curve, poor fit] |
| COc1ccc(OCc2nc3c(n2Cc2ccccc2)C(=O)N(Cc2ccccc2C#N)CCN3)cc1OC | inactive |
| N#Cc1cccc(CN2CCOC[C@H]2c2ncc(-c3ccc(Cl)cc3)[nH]2)c1 | inconclusive: 56.2 µM [inhibitor, single point] |
| COCC(=O)NCCc1noc(-c2ccccc2)n1 | inconclusive: 3.55 µM [inhibitor, full curve, poor fit] |
| CCCN1C(=O)c2[nH]nc(-c3ccccc3O)c2C1c1ccc(OCc2ccccc2)c(OC)c1 (configuration not stated) | inconclusive: 25.1 µM [inhibitor, partial curve] |
| CN(C)C(=O)c1ccc(-c2ccccc2S(=O)(=O)NC(C)(C)C)s1 | inactive |
| O=C(c1ccc2ncccc2c1)N1CCC2(CC1)NCCc1c2[nH]c2ccccc12 | inconclusive: 31.6 µM [inhibitor, single point] |
| CCC(=O)N1CCc2c(C(=O)Nc3ccc(OC)c(OC)c3)cccc21 | inconclusive: 8.91 µM [inhibitor, single point] |
| Cc1ccc(-c2nc(C(=O)N3CCN(c4ccccc4C)CC3)no2)cc1 | inactive |
| Cc1nn2c(c1-c1ccccc1Oc1ccccc1)N(C(=O)c1ccc(F)cc1)CCC2 | inconclusive: 12.6 µM [inhibitor, partial curve, poor fit] |
| COc1cc(NC(=O)c2cc3n(n2)CC(c2ccc(Cl)cc2)OC3)cc(OC)c1OC (configuration not stated) | inconclusive: 31.6 µM [inhibitor, partial curve, poor fit] |
| COc1ccc(Cl)cc1-c1ccc2c(c1)C(=O)N1CCN(C(=O)c3cccs3)C[C@@H]1C(=O)N2 | inactive |
